{"source": "the supplement of paper PMC8728848", "assay_in_all_cases": "glycan array binding signal (z-score within array); higher = stronger binding", "settings_in_all_cases": "glycan notation: IUPAC condensed, linker removed", "key": {"Fuc(a1-2)Gal": {"molecular_target": "Fuc(a1-2)Gal", "in_short": "(§1)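 Columns mapping to the same glycan were averaged after glycan names were converted to IUPAC-condensed notation. The data come from 3228 arrays in the Consortium for Functional Glycomics database, limited to those with an available protein sequence. Binding is reported as a within-array Z-score averaged across arrays of one protein sequence and across linkers.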"}, "Fuc(a1-2)Gal(b1-3)GalNAc": {"molecular_target": "Fuc(a1-2)Gal(b1-3)GalNAc", "in_short": "as §1"}, "[1]": {"molecular_target": "Fuc(a1-2)Gal(b1-3)GalNAc(b1-3)Gal", "in_short": "as §1"}, "[2]": {"molecular_target": "Fuc(a1-2)Gal(b1-3)GalNAc(b1-3)Gal(a1-4)Gal(b1-4)Glc", "in_short": "as §1"}, "[3]": {"molecular_target": "Fuc(a1-2)Gal(b1-3)GalNAc(b1-4)[Neu5Ac(a2-3)]Gal(b1-4)Glc", "in_short": "as §1"}, "Fuc(a1-2)Gal(b1-3)GlcNAc": {"molecular_target": "Fuc(a1-2)Gal(b1-3)GlcNAc", "in_short": "as §1"}, "[4]": {"molecular_target": "Fuc(a1-2)Gal(b1-3)[Fuc(a1-4)]GlcNAc", "in_short": "as §1"}, "Fuc(a1-2)Gal(b1-4)Glc": {"molecular_target": "Fuc(a1-2)Gal(b1-4)Glc", "in_short": "as §1"}, "Fuc(a1-2)Gal(b1-4)GlcNAc": {"molecular_target": "Fuc(a1-2)Gal(b1-4)GlcNAc", "in_short": "as §1"}, "[5]": {"molecular_target": "Fuc(a1-2)Gal(b1-4)GlcNAc(b1-3)Gal(b1-4)GlcNAc", "in_short": "as §1"}, "[6]": {"molecular_target": "Fuc(a1-2)Gal(b1-4)GlcNAc(b1-3)Gal(b1-4)GlcNAc(b1-3)Gal(b1-4)GlcNAc", "in_short": "as §1"}, "[7]": {"molecular_target": "Fuc(a1-2)Gal(b1-4)[Fuc(a1-3)]GlcNAc", "in_short": "as §1"}, "Fuc(a1-2)GlcNAc": {"molecular_target": "Fuc(a1-2)GlcNAc", "in_short": "as §1"}, "Fuc(a1-2)[Gal(a1-3)]Gal": {"molecular_target": "Fuc(a1-2)[Gal(a1-3)]Gal", "in_short": "as §1"}, "[8]": {"molecular_target": "Fuc(a1-2)[Gal(a1-3)]Gal(b1-4)GlcNAc", "in_short": "as §1"}, "[9]": {"molecular_target": "Fuc(a1-2)[Gal(a1-4)]Gal(b1-4)GlcNAc", "in_short": "as §1"}, "[10]": {"molecular_target": "Fuc(a1-2)[GalNAc(a1-3)]Gal", "in_short": "as §1"}, "[11]": {"molecular_target": "Fuc(a1-2)[GalNAc(a1-3)]Gal(b1-4)GlcNAc", "in_short": "as §1"}, "[12]": {"molecular_target": "Fuc(a1-2)[GalNAc(a1-4)]Gal(b1-4)GlcNAc", "in_short": "as §1"}, "[13]": {"molecular_target": "Fuc(a1-2)[GalNAc(b1-3)]Gal", "in_short": "as §1"}, "Fuc(a1-3)GlcNAc": {"molecular_target": "Fuc(a1-3)GlcNAc", "in_short": "as §1"}, "[14]": {"molecular_target": "Fuc(a1-3)[Gal(b1-4)]GlcNAc", "in_short": "as §1"}, "[15]": {"molecular_target": "Fuc(a1-3)[Gal(b1-4)]GlcNAc(b1-3)Gal(b1-4)[Fuc(a1-3)]GlcNAc", "in_short": "as §1"}, "[16]": {"molecular_target": "Fuc(a1-3)[Gal(b1-4)]GlcNAc(b1-3)Gal(b1-4)[Fuc(a1-3)]GlcNAc(b1-3)Gal(b1-4)[Fuc(a1-3)]GlcNAc", "in_short": "as §1"}, "[17]": {"molecular_target": "Fuc(a1-3)[Gal3S(b1-4)]GlcNAc", "in_short": "as §1"}, "Fuc(b1-3)GlcNAc": {"molecular_target": "Fuc(b1-3)GlcNAc", "in_short": "as §1"}, "Gal(a1-2)Gal": {"molecular_target": "Gal(a1-2)Gal", "in_short": "as §1"}, "Gal(a1-3)Gal": {"molecular_target": "Gal(a1-3)Gal", "in_short": "as §1"}, "Gal(a1-3)Gal(b1-4)Glc": {"molecular_target": "Gal(a1-3)Gal(b1-4)Glc", "in_short": "as §1"}, "Gal(a1-3)Gal(b1-4)GlcNAc": {"molecular_target": "Gal(a1-3)Gal(b1-4)GlcNAc", "in_short": "as §1"}, "[18]": {"molecular_target": "Gal(a1-3)Gal(b1-4)[Fuc(a1-3)]GlcNAc", "in_short": "as §1"}, "Gal(a1-3)GalNAc": {"molecular_target": "Gal(a1-3)GalNAc", "in_short": "as §1"}, "[19]": {"molecular_target": "Gal(a1-3)[Gal(a1-4)]Gal(b1-4)GlcNAc", "in_short": "as §1"}, "Gal(a1-4)Gal(b1-4)Glc": {"molecular_target": "Gal(a1-4)Gal(b1-4)Glc", "in_short": "as §1"}, "Gal(a1-4)Gal(b1-4)GlcNAc": {"molecular_target": "Gal(a1-4)Gal(b1-4)GlcNAc", "in_short": "as §1"}, "Gal(a1-4)GlcNAc": {"molecular_target": "Gal(a1-4)GlcNAc", "in_short": "as §1"}, "Gal(a1-6)Glc": {"molecular_target": "Gal(a1-6)Glc", "in_short": "as §1"}, "Gal(b1-2)Gal": {"molecular_target": "Gal(b1-2)Gal", "in_short": "as §1"}, "Gal(b1-3)Gal": {"molecular_target": "Gal(b1-3)Gal", "in_short": "as §1"}, "Gal(b1-3)GalNAc": {"molecular_target": "Gal(b1-3)GalNAc", "in_short": "as §1"}, "[20]": {"molecular_target": "Gal(b1-3)GalNAc(b1-4)Gal(b1-4)Glc", "in_short": "as §1"}, "[21]": {"molecular_target": "Gal(b1-3)GalNAc(b1-4)[Neu5Ac(a2-3)]Gal(b1-4)Glc", "in_short": "as §1"}, "Gal(b1-3)GlcNAc": {"molecular_target": "Gal(b1-3)GlcNAc", "in_short": "as §1"}, "[22]": {"molecular_target": "Gal(b1-3)GlcNAc(b1-3)Gal(b1-4)Glc", "in_short": "as §1"}, "[23]": {"molecular_target": "Gal(b1-3)[Fuc(a1-4)]GlcNAc", "in_short": "as §1"}}, "note": "This is one part of the list."}
{"binder": "Siglec-G (Mus musculus), Q80ZE3 (protein) MSLLLFLLSFLLDGPQGQMESYFLQVQRIVKAQEGLCIFVPCSFSSPEGKWLNRSPLYGYWFKGIRKPSLSFPVATNNKDKVLEWEARGRFQLLGDISKKNCSLLIKDVQWGDSTNYFFRMERGFERFSFKEEFRLQVEALTQKPDIFIPEVLEPGEPVTVVCLFSWTFNQCPAPSFSWMGDAVSFQESRPHTSNYSVLSFIPGLQHHDTELTCQLDFSRMSTQRTVRLRVAYAPRSLAISIFHDNVSVPDLHENPSHLEVQQGQSLRLLCTADSQPPATLSWVLEDQVLSWSSPVGSRTLALELPWVKAGDSGHYTCQAENRLGSQQHTLDLSVLYPPQDLRVTVSQANRTVLEILRNAISLPVLEGQSLCLVCVTYSNPPANVSWAWVTQTLIPIQSSEPGVLELPLVQREHEGEFTCAAQNPLGAQRISLSLSVHYPPQMSSPSCSWEAKGLHCNCSSRAWPAPSLRWRLGEGLLEGNSSNASFTVTFSSLGPWVNSSLSLLQELGPSLWLSCESWNTHGAQTTSVLLLPDKDSATAFSKGAVLGFGITALLALCLIVVIVKTLQKKGTQEEPSRPKLSRGSTILDYINVVPKTRSLARNWKAEPDAPSRSSPLDTHFPKPKKKQKDPHFTYPGCPDPTSSSQVPVSENNPEELHYAALNFSRLRLQETQDPQDTYSDYTEVRVH", "values": [{"measurement": "glycan array binding signal (z-score)", "setting": "Fuc(a1-2)Gal", "value": -0.192}, {"measurement": "glycan array binding signal (z-score)", "setting": "Fuc(a1-2)Gal(b1-3)GalNAc", "value": 0.168}, {"measurement": "glycan array binding signal (z-score)", "setting": "[1]", "value": -0.186}, {"measurement": "glycan array binding signal (z-score)", "setting": "[2]", "value": -0.319}, {"measurement": "glycan array binding signal (z-score)", "setting": "[3]", "value": -0.186}, {"measurement": "glycan array binding signal (z-score)", "setting": "Fuc(a1-2)Gal(b1-3)GlcNAc", "value": -0.168}, {"measurement": "glycan array binding signal (z-score)", "setting": "[4]", "value": 0.172}, {"measurement": "glycan array binding signal (z-score)", "setting": "Fuc(a1-2)Gal(b1-4)Glc", "value": -0.235}, {"measurement": "glycan array binding signal (z-score)", "setting": "Fuc(a1-2)Gal(b1-4)GlcNAc", "value": -0.18}, {"measurement": "glycan array binding signal (z-score)", "setting": "[5]", "value": -0.175}, {"measurement": "glycan array binding signal (z-score)", "setting": "[6]", "value": -0.107}, {"measurement": "glycan array binding signal (z-score)", "setting": "[7]", "value": -0.275}, {"measurement": "glycan array binding signal (z-score)", "setting": "Fuc(a1-2)GlcNAc", "value": -0.233}, {"measurement": "glycan array binding signal (z-score)", "setting": "Fuc(a1-2)[Gal(a1-3)]Gal", "value": -0.342}, {"measurement": "glycan array binding signal (z-score)", "setting": "[8]", "value": -0.058}, {"measurement": "glycan array binding signal (z-score)", "setting": "[9]", "value": -0.134}, {"measurement": "glycan array binding signal (z-score)", "setting": "[10]", "value": -0.182}, {"measurement": "glycan array binding signal (z-score)", "setting": "[11]", "value": -0.301}, {"measurement": "glycan array binding signal (z-score)", "setting": "[12]", "value": 0.105}, {"measurement": "glycan array binding signal (z-score)", "setting": "[13]", "value": -0.29}, {"measurement": "glycan array binding signal (z-score)", "setting": "Fuc(a1-3)GlcNAc", "value": -0.221}, {"measurement": "glycan array binding signal (z-score)", "setting": "[14]", "value": -0.235}, {"measurement": "glycan array binding signal (z-score)", "setting": "[15]", "value": -0.016}, {"measurement": "glycan array binding signal (z-score)", "setting": "[16]", "value": -0.238}, {"measurement": "glycan array binding signal (z-score)", "setting": "[17]", "value": -0.178}, {"measurement": "glycan array binding signal (z-score)", "setting": "Fuc(b1-3)GlcNAc", "value": 1.54}, {"measurement": "glycan array binding signal (z-score)", "setting": "Gal(a1-2)Gal", "value": -0.225}, {"measurement": "glycan array binding signal (z-score)", "setting": "Gal(a1-3)Gal", "value": -0.304}, {"measurement": "glycan array binding signal (z-score)", "setting": "Gal(a1-3)Gal(b1-4)Glc", "value": -0.137}, {"measurement": "glycan array binding signal (z-score)", "setting": "Gal(a1-3)Gal(b1-4)GlcNAc", "value": -0.064}, {"measurement": "glycan array binding signal (z-score)", "setting": "[18]", "value": 0.006}, {"measurement": "glycan array binding signal (z-score)", "setting": "Gal(a1-3)GalNAc", "value": -0.268}, {"measurement": "glycan array binding signal (z-score)", "setting": "[19]", "value": -0.018}, {"measurement": "glycan array binding signal (z-score)", "setting": "Gal(a1-4)Gal(b1-4)Glc", "value": -0.237}, {"measurement": "glycan array binding signal (z-score)", "setting": "Gal(a1-4)Gal(b1-4)GlcNAc", "value": -0.084}, {"measurement": "glycan array binding signal (z-score)", "setting": "Gal(a1-4)GlcNAc", "value": -0.112}, {"measurement": "glycan array binding signal (z-score)", "setting": "Gal(a1-6)Glc", "value": -0.257}, {"measurement": "glycan array binding signal (z-score)", "setting": "Gal(b1-2)Gal", "value": -0.263}, {"measurement": "glycan array binding signal (z-score)", "setting": "Gal(b1-3)Gal", "value": -0.139}, {"measurement": "glycan array binding signal (z-score)", "setting": "Gal(b1-3)GalNAc", "value": -0.145}, {"measurement": "glycan array binding signal (z-score)", "setting": "[20]", "value": -0.328}, {"measurement": "glycan array binding signal (z-score)", "setting": "[21]", "value": -0.159}, {"measurement": "glycan array binding signal (z-score)", "setting": "Gal(b1-3)GlcNAc", "value": -0.146}, {"measurement": "glycan array binding signal (z-score)", "setting": "[22]", "value": -0.136}, {"measurement": "glycan array binding signal (z-score)", "setting": "[23]", "value": -0.201}]}
